Some of the results follow.
Columns and labels:
Test in all cases: glycan array binding signal (z-score within array); higher = stronger binding
Settings in all cases: glycan notation: IUPAC condensed, linker removed
[1] = target: Fuc(a1-3)[Gal3S(b1-4)]GlcNAc
How it was run: (§1)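 The binding signal is a Z-score computed within each array. Data were drawn from 3228 arrays in the Consortium for Functional Glycomics database, restricted to those with a known protein sequence. Scores were averaged over arrays of the same protein sequence at different concentrations or buffers, and over linkers, and negative values can be taken as non-binding.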

[2] = target: Fuc(a1-3)[Gal3S(b1-4)]GlcNAc6S
How it was run: as §1

[3] = target: Fuc(a1-3)[GalNAc(b1-4)]GlcNAc
How it was run: as §1

[4] = target: Fuc(a1-3)[GalNAc(b1-4)]GlcNAc6S
How it was run: as §1

Fuc(a1-4)GlcNAc = target: Fuc(a1-4)GlcNAc
How it was run: as §1

Fuc(b1-3)GlcNAc = target: Fuc(b1-3)GlcNAc
How it was run: as §1

Gal(a1-2)Gal = target: Gal(a1-2)Gal
How it was run: as §1

Gal(a1-3)Gal = target: Gal(a1-3)Gal
How it was run: as §1

Gal(a1-3)Gal(b1-3)GlcNAc = target: Gal(a1-3)Gal(b1-3)GlcNAc
How it was run: as §1

[5] = target: Gal(a1-3)Gal(b1-3)GlcNAc(b1-2)Man
How it was run: as §1

[6] = target: Gal(a1-3)Gal(b1-3)GlcNAc(b1-2)Man(a1-3)[Gal(a1-3)Gal(b1-3)GlcNAc(b1-2)Man(a1-6)]Man(b1-4)GlcNAc(b1-4)GlcNAc
How it was run: as §1

[7] = target: Gal(a1-3)Gal(b1-3)GlcNAc(b1-3)GalNAc
How it was run: as §1

[8] = target: Gal(a1-3)Gal(b1-3)GlcNAc(b1-6)GalNAc
How it was run: as §1

[9] = target: Gal(a1-3)Gal(b1-3)[Fuc(a1-4)]GlcNAc(b1-2)Man(a1-3)[Gal(a1-3)Gal(b1-3)[Fuc(a1-4)]GlcNAc(b1-2)Man(a1-6)]Man(b1-4)GlcNAc(b1-4)GlcNAc
How it was run: as §1

Gal(a1-3)Gal(b1-4)Glc = target: Gal(a1-3)Gal(b1-4)Glc
How it was run: as §1

Gal(a1-3)Gal(b1-4)GlcNAc = target: Gal(a1-3)Gal(b1-4)GlcNAc
How it was run: as §1

[10] = target: Gal(a1-3)Gal(b1-4)GlcNAc(b1-2)Man
How it was run: as §1

[11] = target: Gal(a1-3)Gal(b1-4)GlcNAc(b1-2)Man(a1-3)[Gal(a1-3)Gal(b1-4)GlcNAc(b1-2)Man(a1-6)]Man(b1-4)GlcNAc(b1-4)GlcNAc
How it was run: as §1

[12] = target: Gal(a1-3)Gal(b1-4)GlcNAc(b1-3)GalNAc
How it was run: as §1

[13] = target: Gal(a1-3)Gal(b1-4)GlcNAc(b1-6)GalNAc
How it was run: as §1

[14] = target: Gal(a1-3)Gal(b1-4)[Fuc(a1-3)]GlcNAc
How it was run: as §1

[15] = target: Gal(a1-3)Gal(b1-4)[Fuc(a1-3)]GlcNAc(b1-2)Man(a1-3)[Gal(a1-3)Gal(b1-4)[Fuc(a1-3)]GlcNAc(b1-2)Man(a1-6)]Man(b1-4)GlcNAc(b1-4)GlcNAc
How it was run: as §1

Gal(a1-3)GalNAc = target: Gal(a1-3)GalNAc
How it was run: as §1

[16] = target: Gal(a1-3)[Gal(a1-4)]Gal(b1-4)GlcNAc
How it was run: as §1

[17] = target: Gal(a1-4)Gal(b1-3)GlcNAc(b1-2)Man(a1-3)[Gal(a1-4)Gal(b1-3)GlcNAc(b1-2)Man(a1-6)]Man(b1-4)GlcNAc(b1-4)GlcNAc
How it was run: as §1

Gal(a1-4)Gal(b1-4)Glc = target: Gal(a1-4)Gal(b1-4)Glc
How it was run: as §1

Gal(a1-4)Gal(b1-4)GlcNAc = target: Gal(a1-4)Gal(b1-4)GlcNAc
How it was run: as §1

[18] = target: Gal(a1-4)Gal(b1-4)GlcNAc(b1-2)Man(a1-3)[Gal(a1-4)Gal(b1-4)GlcNAc(b1-2)Man(a1-6)]Man(b1-4)GlcNAc(b1-4)GlcNAc
How it was run: as §1

[19] = target: Gal(a1-4)Gal(b1-4)GlcNAc(b1-3)Gal(b1-4)Glc
How it was run: as §1

Gal(a1-4)GlcNAc = target: Gal(a1-4)GlcNAc
How it was run: as §1

Gal(a1-6)Glc = target: Gal(a1-6)Glc
How it was run: as §1

Gal(b1-2)Gal = target: Gal(b1-2)Gal
How it was run: as §1

Gal(b1-3)Gal = target: Gal(b1-3)Gal
How it was run: as §1

Gal(b1-3)Gal(b1-4)GlcNAc = target: Gal(b1-3)Gal(b1-4)GlcNAc
How it was run: as §1

Gal(b1-3)GalNAc = target: Gal(b1-3)GalNAc
How it was run: as §1

[20] = target: Gal(b1-3)GalNAc(a1-3)[Fuc(a1-2)]Gal(b1-4)Glc
How it was run: as §1

[21] = target: Gal(b1-3)GalNAc(a1-3)[Fuc(a1-2)]Gal(b1-4)GlcNAc
How it was run: as §1

Gal(b1-3)GalNAc(b1-3)Gal = target: Gal(b1-3)GalNAc(b1-3)Gal
How it was run: as §1

[22] = target: Gal(b1-3)GalNAc(b1-3)Gal(a1-4)Gal(b1-4)Glc
How it was run: as §1

[23] = target: Gal(b1-3)GalNAc(b1-4)Gal(b1-4)Glc
How it was run: as §1

[24] = target: Gal(b1-3)GalNAc(b1-4)[Neu5Ac(a2-3)]Gal(b1-4)Glc
How it was run: as §1

Gal(b1-3)GlcNAc = target: Gal(b1-3)GlcNAc
How it was run: as §1

[25] = target: Gal(b1-3)GlcNAc(a1-3)Gal(b1-4)GlcNAc
How it was run: as §1

[26] = target: Gal(b1-3)GlcNAc(a1-6)Gal(b1-4)GlcNAc
How it was run: as §1

Gal(b1-3)GlcNAc(b1-2)Man = target: Gal(b1-3)GlcNAc(b1-2)Man
How it was run: as §1

B1: CFEM-PPl (Pichia pastoris), F2QPV1 (protein)
chain: AVATPPACLLACAAEVVKESSDCDALNNIQCICENEGSAIHACLESTCPDGLSSTALQSFEDVCESVGTEANLDE
glycan array binding signal (z-score) [1]: -0.101 | glycan array binding signal (z-score) [2]: 0.169 | glycan array binding signal (z-score) [3]: -0.14 | glycan array binding signal (z-score) [4]: -0.254 | glycan array binding signal (z-score) (Fuc(a1-4)GlcNAc): -0.188 | glycan array binding signal (z-score) (Fuc(b1-3)GlcNAc): -0.299 | glycan array binding signal (z-score) (Gal(a1-2)Gal): -0.255 | glycan array binding signal (z-score) (Gal(a1-3)Gal): -0.17 | glycan array binding signal (z-score) (Gal(a1-3)Gal(b1-3)GlcNAc): -0.036 | glycan array binding signal (z-score) [5]: -0.33 | glycan array binding signal (z-score) [6]: -0.051 | glycan array binding signal (z-score) [7]: -0.151 | glycan array binding signal (z-score) [8]: -0.144 | glycan array binding signal (z-score) [9]: -0.153 | glycan array binding signal (z-score) (Gal(a1-3)Gal(b1-4)Glc): -0.269 | glycan array binding signal (z-score) (Gal(a1-3)Gal(b1-4)GlcNAc): -0.037 | glycan array binding signal (z-score) [10]: -0.166 | glycan array binding signal (z-score) [11]: 0.06 | glycan array binding signal (z-score) [12]: -0.354 | glycan array binding signal (z-score) [13]: -0.328 | glycan array binding signal (z-score) [14]: -0.163 | glycan array binding signal (z-score) [15]: -0.015 | glycan array binding signal (z-score) (Gal(a1-3)GalNAc): -0.249 | glycan array binding signal (z-score) [16]: -0.118 | glycan array binding signal (z-score) [17]: -0.23 | glycan array binding signal (z-score) (Gal(a1-4)Gal(b1-4)Glc): -0.08 | glycan array binding signal (z-score) (Gal(a1-4)Gal(b1-4)GlcNAc): -0.166 | glycan array binding signal (z-score) [18]: -0.055 | glycan array binding signal (z-score) [19]: -0.251 | glycan array binding signal (z-score) (Gal(a1-4)GlcNAc): 0.414 | glycan array binding signal (z-score) (Gal(a1-6)Glc): 0.268 | glycan array binding signal (z-score) (Gal(b1-2)Gal): -0.094 | glycan array binding signal (z-score) (Gal(b1-3)Gal): 8.35 | glycan array binding signal (z-score) (Gal(b1-3)Gal(b1-4)GlcNAc): 4.73 | glycan array binding signal (z-score) (Gal(b1-3)GalNAc): 4.58 | glycan array binding signal (z-score) [20]: 0.63 | glycan array binding signal (z-score) [21]: 1.2 | glycan array binding signal (z-score) (Gal(b1-3)GalNAc(b1-3)Gal): 7.59 | glycan array binding signal (z-score) [22]: 0.7 | glycan array binding signal (z-score) [23]: 11.5 | glycan array binding signal (z-score) [24]: 1.48 | glycan array binding signal (z-score) (Gal(b1-3)GlcNAc): -0.159 | glycan array binding signal (z-score) [25]: 0.567 | glycan array binding signal (z-score) [26]: 0 | glycan array binding signal (z-score) (Gal(b1-3)GlcNAc(b1-2)Man): -0.094
